Source: the supplement of paper PMC11417369
The other results are listed elsewhere or left out.

Tested on: PfAP2-HC AP2 domain (GST-tagged)
Test: gcPBM binding intensity (ln(normalized median fluorescence intensity)); higher = stronger DNA binding
How it was run: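 Each value is the highest Masliner-normalised natural-log median intensity across replicate spots of either orientation of a probe. The probes were primer-extended double-stranded 36-bp intergenic genomic sequences on an Agilent 4 × 180k array, alongside negative controls, exposed for 1 h to GST-tagged P. falciparum DNA-binding domains expressed in E. coli. Bound protein was picked up with Alexa488 anti-GST antibody and scanned at 488 nm.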

Row | Sequence | gcPBM binding intensity (ln)
1 | AAAAAAAAGAATTATTGTACAAAAGAACAATAAATA [XGTACX_site1368] | 9.74
2 | GGTGCACCCATATACACACACAAATACAATGATAAA [CACACA_site1132] | 10.2
3 | ATATATATATATATATGTACATACCCAATTGTGTAA [XGTACX_site6352] | 10.2
4 | ATTTAAAATGGTTATACACACATAAAAGGGGAAATG [CACACA_site2649] | 10.1
5 | TACAGACATACATACACACATACATATATATATATA [CACACA_site1940] | 10.2
6 | AAATATAAAAAAAAAAGTACTTTGTTACTTTTCTAT [XGTACX_site6034] | 9.43
7 | TTTTTATTAAATAAAGCACACACAACAACTTTTCAC [CACACA_site9372] | 10.2
8 | AAAATAAATATAACCACACACGAAAGAGAGAGAAAA [CACACA_site3272] | 10.5
9 | TAACCATAAGAAGATTGTACATAATAAAAGTATTCT [XGTACX_site1117] | 9.63
10 | AACTGCAAAAAAAGACGTACAAATTATTAATTGCAA [XGTACX_site8929] | 9.68
11 | TTCTTTTTTTTTAAAACAAACAAACAAACAAACAAA [CACACA_negctrl_site832] | 9.41
12 | TATTTATTTATTTAGTGTACATTTATATTTGTTCAT [XGTACX_site7575] | 9.81
13 | TTAATCTTTCCTACATGTACACACAGAAAAAAAAAA [XGTACX_site5213] | 9.58
14 | TATCCATATTTGTTCACACACACACCCATTTATATA [CACACA_site3571] | 11
15 | ATTTTTATGTTGAAAAGTACTTGAATCCCATGTAAC [XGTACX_site4453] | 9.5
16 | ATACAAAATCTAATTTGTACACAATGTTTGATTTTT [XGTACX_site5438] | 9.65
17 | AATATAAATAAAAAATTGATTTCTTTAAAAAGGTAT [CACACA_negctrl_site1038] | 9.64
18 | TACAAATGAGAAATATGTACATAAAAAAAAAAAAAT [XGTACX_site801] | 9.9
19 | TTGTTCTTTCAAATTATACACACCAAAAAAAAAAAA [CACACA_site3070] | 9.47
20 | TAATCATAAAAAAATACACACATATATAATATATAT [CACACA_site1983] | 9.98
21 | TATCTTCATTGTTGACGTACAGTATTTCTAAACGTT [XGTACX_site3439] | 9.67
22 | TTTTTTCTTTTTTTTTTTAATTATAAACATGATATT [GTGCAC_negctrl_site144] | 9.47

Row | Sequence | gcPBM binding intensity (ln)
23 | TAAATATATATAACATGTACATAAAATATATATATA [XGTACX_site4431] | 9.69
24 | TACACATACAGACATACACACATACACATATACACA [CACACA_site6918] | 10.5
25 | CCACTTGTGTAATGTTGTACAAAAATAAATATATTT [XGTACX_site4598] | 9.59
26 | CTATGAACACACACATGTACATATATTAACTCGCTA [XGTACX_site8805] | 9.98
27 | ATAATTAAAAATAATATATATATAATATGATATTAT [GTGCAC_negctrl_site194] | 9.51
28 | CGAGCAAGACGGGGTGCACACAAACTAATATGCCGA [CACACA_site7936] | 9.94
29 | ATTATTATGTAGAAGGTGCTATGTTCTATAAATATA [GTGCAC_site9545] | 9.68
30 | TACCTTTATTAATAAAGTACATTAATCTGTGTATAC [XGTACX_site8720] | 9.61
31 | CATAAAAATGAACATACACACATATATATATATATA [CACACA_site2498] | 9.69
32 | TTGCTTTCTTTTTTTTGTACTCATATCTACTATCAT [XGTACX_site7711] | 9.85
33 | AGGCCTTTTAGTATTTCACACACGTAAATGCGTATA [CACACA_site1108] | 9.76
34 | AAAAAAAAAAAAATGTGGACACAATTGTGTGTTTGT [XGTACX_site3563] | 10.1
35 | TTTTTGTTAAAATAAATATTATAAATATATTAATAT [TGCATGCA_negctrl_site239] | 9.26
36 | TACATATTTTATAGCACACAAATAATAATATGTAGT [CACACA_site688] | 9.69
37 | GTTGTGGAAAGAAGTTGTACATAAAATATTATATAA [XGTACX_site4352] | 9.58
38 | CATCATATAAATTCAAGTACAAGAAAAAGTAATATA [XGTACX_site2383] | 9.64
39 | TAAATAAAGATATATACACACATATTTATATTTATA [CACACA_site6431] | 9.86
40 | AAATAATTTTTATTTGTACACACATACATATATATT [CACACA_site8240] | 9.96
41 | ACAAAATTGAAATTCACACAAAAACTATACTTTTTA [CACACA_site4638] | 9.51
42 | ATATCTACTTTTTTATGTACGAAAAAAATACGGATT [XGTACX_site8937] | 9.39
43 | TTATTCATAAAAACAAAAAACAAAAATGAAATAGGA [CACACA_negctrl_site1123] | 9.64
44 | TATGATATAATATACACACATACATATATATATATA [CACACA_site510] | 9.75
